# According to ChEMBL document CHEMBL4888484, “Replenishing the malaria drug discovery pipeline: Screening and hit evaluation of the MMV Hit Generation Library 1 (HGL1) against asexual blood stage Plasmodium falciparum ,using a nano luciferase reporter read-out” (2022):
# About 540 (0.36%) of roughly 150,000 compounds showed an effect of 50% or more. Some of the results follow.
# Test system: Plasmodium falciparum
# Assay: Primary screen in NF54 nanoGlo assay, in single point, at 2uM, 72h; a lower Z score goes with more inhibition
# Type: functional, Erythrocyte
# Conditions: timepoint 72 hour
SMILES,% Inhibition,Z score
CN(C)C(=O)COC1CN(S(=O)(=O)c2cccc(Cl)c2F)C1,6%,-1.09
O=C(c1ccc2c(c1)OCO2)N1CCOC[C@@H](CO)C1,0%,-0.03
CC(C)(C)OC(=O)N1CC(CC(=O)Nc2cccc(C#N)c2)C1,-8%,1.26
CC(C)CO[C@@H](C)c1noc(CN2CCC(Nc3ccccc3F)CC2)n1,6%,-0.8
CCN1CCN(CC(=O)NCC#N)c2ccccc21,14%,-1.74
O=C(O)C1(C[C@H]2CCCCO2)CCN(c2noc(-c3ccccc3)n2)CC1,-5%,0.79
CCOC(=O)CNC(=O)c1ccc(C)nc1,-4%,0.47
CCN1CCC[C@@H]1CNC(=O)c1sccc1C,6%,-0.59
CNC(=O)C1(F)C(F)(F)C(F)(F)C(F)(F)C(F)(F)C1(F)F,1%,-0.08
COc1ncc(NC(=O)C(C)C)c(OC)n1,-9%,1.73
CCOCCN(C)Cc1cnc2cnccn12,-20%,2.32
O=S1(=O)CCCN(C[C@H]2CN(c3ccccc3)CCO2)CC1,-4%,0.7
COc1cc(C)c(S(=O)(=O)Nc2cccc(-c3ccc(N4CCCCC4)nn3)c2)cc1C,0%,0.06
CC(=O)N1C2CCC1CC(Oc1ccccn1)C2 (stereo not drawn),-20%,2.33
CC[C@@H](N)CNc1ccnc(-c2cc(-c3cnn(C)c3)ccc2O)n1,-1%,0.15
c1nc(NCCc2cc[nH]n2)cc(C2CC2)n1,-8%,1.55
CN1C[C@@H](CCNC(=O)Nc2cn(C)nc2C(F)(F)F)CC1=O,-14%,1.39
O=C([C@H]1CC(=O)N(c2ccc3c(c2)CCC3)C1)N1CCN(c2cnccn2)CC1,-11%,1.7
c1ccc(-c2ccc([C@@H]3C[C@H](c4cccs4)n4ncnc4N3)cc2)cc1,-8%,1.3
O=C(NC[C@H]1C[C@@H]1c1ccc(Cl)cc1Cl)c1cnccn1,-18%,1.97
O=S(=O)(CCc1ccccn1)NCC1CCCCCCC1,-12%,1.3
CN([C@H]1CCOC1)S(=O)(=O)c1ccc(Cl)c(F)c1Cl,0%,-0.03
Cc1cc(C(=O)N2CCC(n3cnc4ncccc4c3=O)CC2)[nH]n1,-9%,1.16
Nc1ncccc1CNS(=O)(=O)c1cccc(C(=O)N2CCCC2)c1,0%,-0.08
